Measured values from publication PMC12820563, “FoxP3 forms a head-to-head dimer in vivo and stabilizes its multimerization on adjacent microsatellites”.
The list shows a part of the results.

molecular target: T1, MBP-FoxP1dN (Mus musculus, UniProt P58462 326-579); assay: PD-seq (MBP pull-down with sequencing); 20 mM Tris-HCl pH 7.5, 100 mM NaCl, 1.5 mM MgCl2, 0.4 uM protein, 0.1 uM dsDNA library, 30 min, room temperature, amylose pull-down; high values mean tight binding; settings: protein: recombinant; tags: His6-MBP; chain copies: 2; dsDNA, one strand shown
T1 sequence: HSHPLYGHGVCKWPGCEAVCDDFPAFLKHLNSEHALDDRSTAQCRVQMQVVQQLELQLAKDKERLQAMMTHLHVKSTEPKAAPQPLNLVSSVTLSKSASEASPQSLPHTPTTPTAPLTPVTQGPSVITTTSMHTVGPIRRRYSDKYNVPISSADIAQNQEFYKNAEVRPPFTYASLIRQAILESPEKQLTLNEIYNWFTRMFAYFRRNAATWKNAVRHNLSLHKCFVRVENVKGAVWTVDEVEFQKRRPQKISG
Method in brief: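 In Tris pH 7.5 buffer with NaCl and MgCl2, 0.4 µM His6-MBP-tagged mouse FoxP3 or FoxP1 fragment lacking the N-terminus, from E. coli, met 0.1 µM Klenow-filled double-stranded degenerate DNA library for 30 min at room temperature. Three washes on amylose resin followed capture of the complexes, then proteinase K release of DNA, PCR barcoding and Illumina sequencing. Binding is taken as pooled-replicate reads-per-million enrichment of pull-down relative to input.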

| Sequence | binding signal |
| --- | --- |
| GATGATTGTTCTCCCAGCTGATGAATTTTTTTAATCGAGTAAACAAATTTTCCTAATCTTTCTGTTCAAGCGCCATCTAC | 1.01 RPM ratio (pull-down/input) |
| GATGATTGTTCTCCCAGCTGATGAATTGCATTCGTCGAGTAAACAAATTTTCCTAATCTTTCTGTTCAAGCGCCATCTAC | 1.33 RPM ratio (pull-down/input) |
| GATGATTGTTCTCCCAGCTGATGAATTGCACAGGTCGAGTAAACAAATTTTCCTAATCTTTCTGTTCAAGCGCCATCTAC | 0.955 RPM ratio (pull-down/input) |
| GATGATTGTTCTCCCAGCTGATGAATTTGCTACGTCGAGTAAACAAATTTTCCTAATCTTTCTGTTCAAGCGCCATCTAC | 1.01 RPM ratio (pull-down/input) |
| GATGATTGTTCTCCCAGCTGATGAATTGCCGGCTTCGAGTAAACAAATTTTCCTAATCTTTCTGTTCAAGCGCCATCTAC | 0.93 RPM ratio (pull-down/input) |
| GATGATTGTTCTCCCAGCTGATGAATTTAACAGCTCGAGTAAACAAATTTTCCTAATCTTTCTGTTCAAGCGCCATCTAC | 0.889 RPM ratio (pull-down/input) |
| GATGATTGTTCTCCCAGCTGATGAATTTCATATGTCGAGTAAACAAATTTTCCTAATCTTTCTGTTCAAGCGCCATCTAC | 0.873 RPM ratio (pull-down/input) |
| GATGATTGTTCTCCCAGCTGATGAATTTTCGAGATCGAGTAAACAAATTTTCCTAATCTTTCTGTTCAAGCGCCATCTAC | 0.88 RPM ratio (pull-down/input) |
| GATGATTGTTCTCCCAGCTGATGAATTCCGTGCATCGAGTAAACAAATTTTCCTAATCTTTCTGTTCAAGCGCCATCTAC | 1.13 RPM ratio (pull-down/input) |
| GATGATTGTTCTCCCAGCTGATGAATTATCGGGGTCGAGTAAACAAATTTTCCTAATCTTTCTGTTCAAGCGCCATCTAC | 0.806 RPM ratio (pull-down/input) |
| GATGATTGTTCTCCCAGCTGATGAATTACAGGGCTCGAGTAAACAAATTTTCCTAATCTTTCTGTTCAAGCGCCATCTAC | 0.853 RPM ratio (pull-down/input) |
| GATGATTGTTCTCCCAGCTGATGAATTGGGGCATTCGAGTAAACAAATTTTCCTAATCTTTCTGTTCAAGCGCCATCTAC | 0.986 RPM ratio (pull-down/input) |
| GATGATTGTTCTCCCAGCTGATGAATTGGTTGCATCGAGTAAACAAATTTTCCTAATCTTTCTGTTCAAGCGCCATCTAC | 1.44 RPM ratio (pull-down/input) |
| GATGATTGTTCTCCCAGCTGATGAATTCACGGGTTCGAGTAAACAAATTTTCCTAATCTTTCTGTTCAAGCGCCATCTAC | 0.766 RPM ratio (pull-down/input) |
| GATGATTGTTCTCCCAGCTGATGAATTTGGTTCTTCGAGTAAACAAATTTTCCTAATCTTTCTGTTCAAGCGCCATCTAC | 0.909 RPM ratio (pull-down/input) |
| GATGATTGTTCTCCCAGCTGATGAATTGCCCCACTCGAGTAAACAAATTTTCCTAATCTTTCTGTTCAAGCGCCATCTAC | 0.931 RPM ratio (pull-down/input) |
| GATGATTGTTCTCCCAGCTGATGAATTTTGCTACTCGAGTAAACAAATTTTCCTAATCTTTCTGTTCAAGCGCCATCTAC | 0.966 RPM ratio (pull-down/input) |
| GATGATTGTTCTCCCAGCTGATGAATTTGGTAGGTCGAGTAAACAAATTTTCCTAATCTTTCTGTTCAAGCGCCATCTAC | 0.783 RPM ratio (pull-down/input) |
| GATGATTGTTCTCCCAGCTGATGAATTATATGTATCGAGTAAACAAATTTTCCTAATCTTTCTGTTCAAGCGCCATCTAC | 1.41 RPM ratio (pull-down/input) |
| GATGATTGTTCTCCCAGCTGATGAATTAGCTTGATCGAGTAAACAAATTTTCCTAATCTTTCTGTTCAAGCGCCATCTAC | 0.848 RPM ratio (pull-down/input) |
| GATGATTGTTCTCCCAGCTGATGAATTAATGGTATCGAGTAAACAAATTTTCCTAATCTTTCTGTTCAAGCGCCATCTAC | 1.04 RPM ratio (pull-down/input) |

| Sequence | binding signal |
| --- | --- |
| GATGATTGTTCTCCCAGCTGATGAATTCCACCAATCGAGTAAACAAATTTTCCTAATCTTTCTGTTCAAGCGCCATCTAC | 0.94 RPM ratio (pull-down/input) |
| GATGATTGTTCTCCCAGCTGATGAATTATACTTCTCGAGTAAACAAATTTTCCTAATCTTTCTGTTCAAGCGCCATCTAC | 0.878 RPM ratio (pull-down/input) |
| GATGATTGTTCTCCCAGCTGATGAATTTGATCTATCGAGTAAACAAATTTTCCTAATCTTTCTGTTCAAGCGCCATCTAC | 0.921 RPM ratio (pull-down/input) |
| GATGATTGTTCTCCCAGCTGATGAATTCACACTCTCGAGTAAACAAATTTTCCTAATCTTTCTGTTCAAGCGCCATCTAC | 0.854 RPM ratio (pull-down/input) |
| GATGATTGTTCTCCCAGCTGATGAATTGTCGACTTCGAGTAAACAAATTTTCCTAATCTTTCTGTTCAAGCGCCATCTAC | 0.97 RPM ratio (pull-down/input) |
| GATGATTGTTCTCCCAGCTGATGAATTACCTGAATCGAGTAAACAAATTTTCCTAATCTTTCTGTTCAAGCGCCATCTAC | 1.05 RPM ratio (pull-down/input) |
| GATGATTGTTCTCCCAGCTGATGAATTCGTGATATCGAGTAAACAAATTTTCCTAATCTTTCTGTTCAAGCGCCATCTAC | 1.02 RPM ratio (pull-down/input) |
| GATGATTGTTCTCCCAGCTGATGAATTGGGCATGTCGAGTAAACAAATTTTCCTAATCTTTCTGTTCAAGCGCCATCTAC | 0.887 RPM ratio (pull-down/input) |
| GATGATTGTTCTCCCAGCTGATGAATTTTGGGTCTCGAGTAAACAAATTTTCCTAATCTTTCTGTTCAAGCGCCATCTAC | 0.795 RPM ratio (pull-down/input) |
| GATGATTGTTCTCCCAGCTGATGAATTACCGGCGTCGAGTAAACAAATTTTCCTAATCTTTCTGTTCAAGCGCCATCTAC | 0.93 RPM ratio (pull-down/input) |
| GATGATTGTTCTCCCAGCTGATGAATTACACTTTTCGAGTAAACAAATTTTCCTAATCTTTCTGTTCAAGCGCCATCTAC | 1.34 RPM ratio (pull-down/input) |
| GATGATTGTTCTCCCAGCTGATGAATTGCCACGTTCGAGTAAACAAATTTTCCTAATCTTTCTGTTCAAGCGCCATCTAC | 1.04 RPM ratio (pull-down/input) |
| GATGATTGTTCTCCCAGCTGATGAATTTGTATGTTCGAGTAAACAAATTTTCCTAATCTTTCTGTTCAAGCGCCATCTAC | 1.67 RPM ratio (pull-down/input) |
| GATGATTGTTCTCCCAGCTGATGAATTGTCTCCGTCGAGTAAACAAATTTTCCTAATCTTTCTGTTCAAGCGCCATCTAC | 0.976 RPM ratio (pull-down/input) |
| GATGATTGTTCTCCCAGCTGATGAATTCCCAGTTTCGAGTAAACAAATTTTCCTAATCTTTCTGTTCAAGCGCCATCTAC | 0.799 RPM ratio (pull-down/input) |
| GATGATTGTTCTCCCAGCTGATGAATTAGTACCCTCGAGTAAACAAATTTTCCTAATCTTTCTGTTCAAGCGCCATCTAC | 0.932 RPM ratio (pull-down/input) |
| GATGATTGTTCTCCCAGCTGATGAATTTACGCTCTCGAGTAAACAAATTTTCCTAATCTTTCTGTTCAAGCGCCATCTAC | 1.15 RPM ratio (pull-down/input) |
| GATGATTGTTCTCCCAGCTGATGAATTCCCCGCATCGAGTAAACAAATTTTCCTAATCTTTCTGTTCAAGCGCCATCTAC | 1.07 RPM ratio (pull-down/input) |
| GATGATTGTTCTCCCAGCTGATGAATTCCAGGCATCGAGTAAACAAATTTTCCTAATCTTTCTGTTCAAGCGCCATCTAC | 0.894 RPM ratio (pull-down/input) |
| GATGATTGTTCTCCCAGCTGATGAATTCGGAATTTCGAGTAAACAAATTTTCCTAATCTTTCTGTTCAAGCGCCATCTAC | 0.864 RPM ratio (pull-down/input) |
| GATGATTGTTCTCCCAGCTGATGAATTATCCGCATCGAGTAAACAAATTTTCCTAATCTTTCTGTTCAAGCGCCATCTAC | 1.15 RPM ratio (pull-down/input) |

| Sequence | binding signal |
| --- | --- |
| GATGATTGTTCTCCCAGCTGATGAATTAGGTGCGTCGAGTAAACAAATTTTCCTAATCTTTCTGTTCAAGCGCCATCTAC | 1.05 RPM ratio (pull-down/input) |
| GATGATTGTTCTCCCAGCTGATGAATTACAGTTTTCGAGTAAACAAATTTTCCTAATCTTTCTGTTCAAGCGCCATCTAC | 1.31 RPM ratio (pull-down/input) |
| GATGATTGTTCTCCCAGCTGATGAATTCAAATATTCGAGTAAACAAATTTTCCTAATCTTTCTGTTCAAGCGCCATCTAC | 1.05 RPM ratio (pull-down/input) |
| GATGATTGTTCTCCCAGCTGATGAATTTCATATATCGAGTAAACAAATTTTCCTAATCTTTCTGTTCAAGCGCCATCTAC | 1.03 RPM ratio (pull-down/input) |
| GATGATTGTTCTCCCAGCTGATGAATTCTATTGATCGAGTAAACAAATTTTCCTAATCTTTCTGTTCAAGCGCCATCTAC | 2.09 RPM ratio (pull-down/input) |
| GATGATTGTTCTCCCAGCTGATGAATTTCAAAGCTCGAGTAAACAAATTTTCCTAATCTTTCTGTTCAAGCGCCATCTAC | 0.801 RPM ratio (pull-down/input) |
| GATGATTGTTCTCCCAGCTGATGAATTGGGAAACTCGAGTAAACAAATTTTCCTAATCTTTCTGTTCAAGCGCCATCTAC | 0.889 RPM ratio (pull-down/input) |
| GATGATTGTTCTCCCAGCTGATGAATTTCGGTGGTCGAGTAAACAAATTTTCCTAATCTTTCTGTTCAAGCGCCATCTAC | 0.864 RPM ratio (pull-down/input) |
| GATGATTGTTCTCCCAGCTGATGAATTCATAACGTCGAGTAAACAAATTTTCCTAATCTTTCTGTTCAAGCGCCATCTAC | 1.01 RPM ratio (pull-down/input) |
| GATGATTGTTCTCCCAGCTGATGAATTGGACGCCTCGAGTAAACAAATTTTCCTAATCTTTCTGTTCAAGCGCCATCTAC | 0.889 RPM ratio (pull-down/input) |
| GATGATTGTTCTCCCAGCTGATGAATTCGTGCTGTCGAGTAAACAAATTTTCCTAATCTTTCTGTTCAAGCGCCATCTAC | 1.17 RPM ratio (pull-down/input) |
| GATGATTGTTCTCCCAGCTGATGAATTCCAATGCTCGAGTAAACAAATTTTCCTAATCTTTCTGTTCAAGCGCCATCTAC | 0.9 RPM ratio (pull-down/input) |
| GATGATTGTTCTCCCAGCTGATGAATTATCTGGGTCGAGTAAACAAATTTTCCTAATCTTTCTGTTCAAGCGCCATCTAC | 0.882 RPM ratio (pull-down/input) |
| GATGATTGTTCTCCCAGCTGATGAATTTCGGGATTCGAGTAAACAAATTTTCCTAATCTTTCTGTTCAAGCGCCATCTAC | 0.86 RPM ratio (pull-down/input) |
| GATGATTGTTCTCCCAGCTGATGAATTTCAAGCTTCGAGTAAACAAATTTTCCTAATCTTTCTGTTCAAGCGCCATCTAC | 0.801 RPM ratio (pull-down/input) |
| GATGATTGTTCTCCCAGCTGATGAATTTACTCATTCGAGTAAACAAATTTTCCTAATCTTTCTGTTCAAGCGCCATCTAC | 1.35 RPM ratio (pull-down/input) |
| GATGATTGTTCTCCCAGCTGATGAATTTGCATTCTCGAGTAAACAAATTTTCCTAATCTTTCTGTTCAAGCGCCATCTAC | 1.49 RPM ratio (pull-down/input) |
| GATGATTGTTCTCCCAGCTGATGAATTAGATATGTCGAGTAAACAAATTTTCCTAATCTTTCTGTTCAAGCGCCATCTAC | 1.07 RPM ratio (pull-down/input) |
| GATGATTGTTCTCCCAGCTGATGAATTGTTCGCCTCGAGTAAACAAATTTTCCTAATCTTTCTGTTCAAGCGCCATCTAC | 1.09 RPM ratio (pull-down/input) |
| GATGATTGTTCTCCCAGCTGATGAATTGCCGAGTTCGAGTAAACAAATTTTCCTAATCTTTCTGTTCAAGCGCCATCTAC | 0.883 RPM ratio (pull-down/input) |
| GATGATTGTTCTCCCAGCTGATGAATTAACCGTCTCGAGTAAACAAATTTTCCTAATCTTTCTGTTCAAGCGCCATCTAC | 0.804 RPM ratio (pull-down/input) |
